Assay results: the BET-seq Pho4 binding data (Le et al. 2018)
Some of the results follow. Values were computed here from the reads of four pooled replicates and scatter widely.

Molecular target: T1, Pho4 (S. cerevisiae) (UniProt P07270)
T1 sequence: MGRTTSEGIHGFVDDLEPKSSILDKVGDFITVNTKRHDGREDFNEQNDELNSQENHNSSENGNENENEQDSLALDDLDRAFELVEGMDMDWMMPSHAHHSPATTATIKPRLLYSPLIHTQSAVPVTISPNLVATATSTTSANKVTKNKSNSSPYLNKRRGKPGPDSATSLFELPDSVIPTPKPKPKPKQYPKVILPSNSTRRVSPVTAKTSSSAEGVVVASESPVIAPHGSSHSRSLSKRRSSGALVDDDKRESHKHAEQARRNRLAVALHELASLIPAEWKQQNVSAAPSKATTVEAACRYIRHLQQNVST
Assay: relative binding free energy (BET-seq); higher = weaker binding
Settings: reference: library average

Sequence | relative binding free energy [kcal/mol]
GGGGCCACGTGATGAG | 0.21
GAGGGCACGTGGCGTG | -0.16
ATTAGCACGTGACGGG | 0.04
ATAGTCACGTGTCATT | 0.12
TTGGGCACGTGCACTT | -0.19
TCTATCACGTGATTTG | 0.28
TGATGCACGTGGTCTT | -0.08
GTGGTCACGTGTAAGT | 0.22
ATGTGCACGTGAATGG | 0.23
AGAGTCACGTGGGGCC | 0.02
GGGTACACGTGGTAGC | 0.09
ATATTCACGTGGAATG | 0.13
TATTACACGTGACGTT | 0.23
TGTGGCACGTGGGAAC | -0.06
TATTTCACGTGGAAGG | 0.48
AGCGGCACGTGGATAG | 0
CGGTACACGTGTTGCG | 0.04
TAGGGCACGTGCAGGT | -0.25
GCGCTCACGTGGGGTT | -0.06
TAGGACACGTGGAAGT | 0.1
GGTGTCACGTGATGTG | 0.3
ATGGTCACGTGATGGA | 0.29
ATATGCACGTGTAGGT | -0.08

Sequence | relative binding free energy [kcal/mol]
TTAGTCACGTGACTTT | 0.28
TGGTGCACGTGAGTCA | 0.11
TTGCGCACGTGATGTT | 0.09
GTCCGCACGTGATGGG | 0.09
TTGCTCACGTGTGTGT | 0.21
TTATACACGTGGGGTC | -0.16
TCAGACACGTGGTTGT | -0.02
AGGGTCACGTGCTTTG | 0.07
AGTTGCACGTGGAGAT | 0.04
GTATGCACGTGGGCAA | -0.07
TTTGCCACGTGGCGTT | -0.21
TCTTACACGTGGGGGA | -0.08
TTTTTCACGTGCGTAG | 0.21
TTTTTCACGTGAGCCT | 0.32
GGGGACACGTGGGGAG | -0.04
GGCGACACGTGGTCGG | -0.07
ACGGGCACGTGAGTAT | 0.07
CGAGACACGTGGTGGG | -0.06
TAATTCACGTGGGGGT | 0.08
TTCTACACGTGCGGGG | 0.15
GGTCTCACGTGGAGTT | 0.37
AGGTTCACGTGGCAGT | 0.1
ATTTTCACGTGTGGTC | 0.37

Sequence | relative binding free energy [kcal/mol]
TGATGCACGTGGAATG | 0.03
AATAGCACGTGAGGGA | 0.07
TGGGACACGTGTGGTT | 0.07
ATGCTCACGTGTGTGG | 0.09
GGTAGCACGTGTGACA | 0.03
GTAAGCACGTGTTTTT | 0.01
TCGTTCACGTGTGGTG | 0.34
TTCGACACGTGTGATG | 0.13
AAGGACACGTGGGTGC | -0.13
TGTAGCACGTGCATGG | -0.06
AAAATCACGTGGGGGA | 0.09
ATAGACACGTGGGTTG | -0.16
GGGGGCACGTGAAGGC | 0.09
TATTGCACGTGGTCGA | -0.18
TACCTCACGTGGGGTG | 0.13
GGGGTCACGTGTCTGT | 0.2
GAGTGCACGTGGTAGC | -0.04
TAGGACACGTGACGTG | 0.24
CTGAACACGTGGGGGT | -0.12
TAATTCACGTGTGTCG | 0.23
TAAATCACGTGCGGTT | 0.19
TTATTCACGTGTCGTA | 0.17
TGTTGCACGTGAAGTA | 0.12

Sequence | relative binding free energy [kcal/mol]
TTAATCACGTGTGTAA | 0.19
GTATACACGTGGGAAG | 0
CTCGTCACGTGGGGGA | -0.08
TATGCCACGTGAGGGG | 0.08
ATTTTCACGTGGTTCG | 0.26
TTTAGCACGTGCGGGT | -0.09
TTCGTCACGTGACGTT | 0.25
GGGGTCACGTGACATG | 0.2
ATTGTCACGTGTATTG | 0.05
TGGCCCACGTGGGTTG | -0.25
TAGGTCACGTGTTAGG | -0.01
TTACTCACGTGGTATG | 0.16
AGTTACACGTGGGGAT | 0.11
AGGGGCACGTGCGAGG | -0.08
GGTGCCACGTGGTTAT | -0.13
TTAAGCACGTGCAAGT | -0.01
AGATGCACGTGAGTTG | 0.29
CGGCGCACGTGGTATG | -0.29
TTCGTCACGTGAAGGC | 0.38
ATGCACACGTGATTGG | 0.21
AGCGTCACGTGTATGT | 0.07
GGATTCACGTGAATGG | 0.35
CGTTACACGTGGTCTG | 0.08

Sequence | relative binding free energy [kcal/mol]
AGAGGCACGTGGGGAG | -0.24
CAGGTCACGTGATGGT | 0.28
TTAATCACGTGACTTT | 0.19
TGTGCCACGTGGTACA | -0.04
TGGGTCACGTGGTCCT | -0.01
GCCTGCACGTGGGTTA | -0.18
AGAAGCACGTGATGTG | -0.13
AAATACACGTGGTATG | 0.06
TACGTCACGTGTATTG | -0.06
TTGTTCACGTGCAGTT | 0.3
GTGGGCACGTGCGCGA | -0.14
TGGGTCACGTGTGGTT | 0.24
ACTGGCACGTGATGAT | 0.02
TTTAGCACGTGATTAG | 0.02
TAGAGCACGTGTATGC | -0.06
CATTTCACGTGTTATG | 0.18
GGATCCACGTGGTGGC | 0.14
TATGACACGTGAGGGC | 0.19
TGGGTCACGTGCTAGA | 0.17
CCAGTCACGTGGGTTT | 0.03
TAGTTCACGTGGGTCC | 0.28
GAACGCACGTGGGGAG | -0.14
GTCGTCACGTGCAGTG | 0.06
